Data as given in publication PMC6410080 (Viruses, 2019).

System: DID-labelled SFV hemifusion/fusion
Format: cell-based, Semliki Forest virus
Conditions: HeLa Kyoto, 10 μM, 40 min at 37 °C, normalised to DMSO

Structure (SMILES): O=[N+]([O-])c1ccc2c(c1)S(=O)(=O)C=C2 [Stattic]
- Inhibition of DID-SFV de-quenching (hemifusion/fusion): More than 50%
